# The whole screen tested about 380,000 compounds, of which about 4,000 (1.1%) were called active. Inconclusive means that the source gave no clear call. Such entries were picked first, then a sample of the others. Calls follow the shape of the dose curve; as a rule, active = well fitted activation curve with a large enough effect; inconclusive = small, poorly fitted or top-dose-only effect; inactive = no such curve, though single readings can be large or run the other way. A potency beside an inconclusive call is a rough fit, not a confirmed value.
# Assay: qHTS Assay to Identify Small Molecule Activators of BRCA1 Expression; also: nearly all actives have a fitted effect of over 80% in size
# Settings: MCF7-BRCA1-FFLuc reporter, luminescence, 48 h; activation: at 46.1 µM (top of the series), scaled: vehicle 0%, 10 µM genistein 100% unless noted
# How it was run: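 First, MCF7-BRCA1-FFLuc cells (2000/well) attach for 2 h; next, compounds are pin-added and incubated 48 h at 37 °C; finally, luciferase reagent is added and luminescence read after 15 min.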
# Potency is read from the fitted curve at half-maximal effect; tags tell the direction and shape of the fitted curve.
SMILES,Potency,activation
CC(C)(C)C(=O)Cn1ncc(N2CCCC2)c(Br)c1=O,active: 10 µM,–
COc1ccc(-c2cn(CC3CCCCC3)nn2)cc1,"inconclusive: 2.82 µM [activator, full curve, poor fit]",–
O=C(Nc1ccccn1)c1ccc2c(c1)OCO2,"inconclusive: 1.26 µM [activator, partial curve, poor fit]",–
NC(=O)C1CCN(C(=O)c2cc3c(s2)CCCC3)CC1,–,inconclusive: 185% [activator]
CCOC(=O)/C(=C/c1ccc(OC(=O)c2ccncc2)cc1)C(C)=O,–,inactive: 0.248%
O=C(/C=C/c1cccs1)Nc1ccncc1,"inconclusive: 11.2 µM [activator, partial curve, poor fit]",–
O=S(=O)(c1cccc2ccccc12)N1CCN(c2ccc(Cl)c(Cl)c2)CC1,–,inactive: 15.4%
O=C(Cn1cnc2c(cnn2-c2ccccc2)c1=O)OCc1ccccc1,"inconclusive: 25.1 µM [activator, single point]",–
CN(Cc1cnc2nc(N)nc(N)c2n1)c1ccc(C(=O)NC(CCC(=O)O)C(=O)O)c2ccccc12 (stereo not given),–,inconclusive: -81% [activator]
CCN(C(=O)CN1C(=O)S/C(=C\c2ccc(F)cc2)C1=O)C1CCS(=O)(=O)C1 (stereo not given),–,inactive: 54.1%
COc1ccc(N2CCN(c3ncccn3)CC2)cc1,"inconclusive: 8.91 µM [activator, partial curve, poor fit]",–
O=C(COC(=O)c1ccc[nH]c1=O)NC1CC1,–,inactive: -16.3%
Cc1ccc(OCc2cc(C(=O)N(C)Cc3cnn(C)c3)no2)cc1C,"inconclusive: 22.4 µM [activator, single point]",–
COc1ccc(CNC(=O)c2ccc3c(c2)N(Cc2c(F)cccc2Cl)C(=O)CS3)cc1,–,inactive: -34.7%
Cc1cc(C)c(NN=c2c(=O)c3ccccc3c2=O)c(C)c1,"inconclusive: 3.55 µM [activator, full curve, poor fit]",–
Cc1ccc2nc(-c3ccc(C)o3)c(Nc3ccc(F)cc3)n2c1,–,inactive: 14.3%
CCN1CCN(c2ccc(S(=O)(=O)N3CCCCC3)cc2NC(=O)c2ccc([N+](=O)[O-])s2)CC1,–,inactive: -78.9%
O=C(Nc1ncc(Cc2ccccc2)s1)C1CCCO1 (stereo not given),"inconclusive: 0.631 µM [activator, full curve, poor fit]",–
Clc1ccccc1/C=C/c1nc(-c2ccccn2)no1,–,inconclusive: -81.8% [activator]
Cc1ccc2nc(-c3ccncc3)[nH]c2c1,active: 2.82 µM,–
COc1cc2c(cc1OC)CN(CCC(C)c1ccc(Cl)cc1)CC2 (stereo not given),–,inactive: -14.1%
NS(=O)(=O)c1ccc(NC(=O)Nc2ccc3c(c2)OCO3)cc1,"inconclusive: 11.2 µM [activator, partial curve, poor fit]",–
O=C(Nc1cc(Cl)ccc1Cl)c1cc([N+](=O)[O-])cc(Br)c1O,"inconclusive: 1.58 µM [activator, partial curve, poor fit]",–
CSc1ncccc1C(=O)OCC(=O)c1ccc(Br)s1,–,inactive: 34%
CC1CCC2C(=O)N(c3ccc(Cc4ccncc4)cc3)C(=O)C2C1 (stereo not given),–,inactive: 3.09%
CCN(CC)c1ccc(C=C(c2nnnn2-c2ccc(C)cc2)c2nnnn2-c2ccc(C)cc2)cc1,–,inconclusive: 56.1% [activator]
Cc1ccccc1Oc1nc(-c2ccccn2)nc2ccccc12,–,inactive: -56.4%

SMILES,Potency,activation
Cn1c(SCc2ccc(C#N)cc2Cl)nc2ccccc21,active: 4.47 µM,–
Cc1cccc(OCC(=O)Nc2nc3ccc([N+](=O)[O-])cc3s2)c1,–,inactive: 11.9%
CC(=O)c1ccc2c(c1)c(C#N)c1ccccc1[n+]2[O-],–,inactive: 48.6%
CCOc1ccc(Oc2ccc(NS(=O)(=O)c3cc(C(=O)O)ccc3Cl)cc2)cc1,–,inactive: -12.3%
O=C(CSc1ncc(-c2ccc(F)cc2)[nH]1)N1CCCCC1,active: 11.2 µM,–
CNC(=O)c1ccc(-c2cc(C(F)(F)F)nn2C)s1,"inconclusive: 1.26 µM [activator, partial curve, poor fit]",–
CN(C)C(CNC(=O)CCc1nc2cc(Cl)ccc2n(Cc2ccccc2)c1=O)c1ccccc1 (stereo not given),–,inactive: -68.6%
CC1=C(C(=O)N(C)C)CC(CC(=O)NC2CCCC2)C(=O)N1CCC1=CCCCC1 (stereo not given),"inconclusive: 3.55 µM [activator, partial curve, poor fit]",–
c1ccc2sc(N3CCOCC3)nc2c1,active: 8.91 µM,–
CCN(CC)c1ccc(-c2nnc(SCC(=O)NCc3ccco3)n2C)cc1,–,inactive: 9.3%
COc1ccc(C(=O)Cc2ccc3c(c2)OCO3)c(O)c1,"inconclusive: 1.26 µM [activator, full curve, poor fit]",–
CCc1ccc2[nH]c(=O)c(CN(Cc3ccccc3)C(=O)Nc3ccccc3OC)cc2c1,–,inactive: -64.4%
COc1cccc(NC(=O)Nc2nnc(N3CCCCC3C)s2)c1 (stereo not given),"inconclusive: 15.8 µM [activator, partial curve, poor fit]",–
Nc1ccc(C#Cc2ccccc2)cc1,–,inactive: 40.7%
O=C(Nc1ccc(Br)cc1)c1ccc2c(c1)OCO2,"inconclusive: 0.631 µM [activator, full curve, poor fit]",–
Nc1nnc(SCCCOc2ccc(F)cc2)s1,"inconclusive: 8.91 µM [activator, partial curve, poor fit]",–
Cc1nc(SCCOc2ccccc2F)[nH]c(=O)c1Cc1ccccc1,"inconclusive: 15.8 µM [activator, partial curve, poor fit]",–
COc1cccc2c(=O)c3ccccc3oc12,"inconclusive: 15.8 µM [activator, single point]",–
CC(C)(Oc1ccc(Br)cc1)C(=O)Nc1cc(-c2nc3ccccc3[nH]2)ccc1Cl,–,inactive: 1.18%
O=C(NNc1ccccc1[N+](=O)[O-])Nc1cccc(Cl)c1,–,inactive: -19.9%
COc1ccc2oc(-c3cccc(NC(=O)CSc4ccc(Cl)cc4)c3)nc2c1,"inconclusive: 0.631 µM [activator, full curve, poor fit]",–
O=C(COC(=O)CNC(=O)c1ccccc1)Nc1ccc(Cl)cc1C(F)(F)F,–,inactive: -0.629%
O=C(Nc1ccc2c(c1)OCCO2)c1ccc(Br)cc1,"inconclusive: 1 µM [activator, full curve, poor fit]",–
Cc1ccccc1NC(=O)/C=C/c1cccs1,"inconclusive: 2.51 µM [activator, full curve, poor fit]",–
Cc1ccc(Cn2c(C(C)Nc3nc(-c4ccc(F)cc4)cs3)nc3cc(Cl)c(Cl)cc32)cc1 (stereo not given),–,inactive: -19.9%
c1ccc(-c2noc(C3CCCCC3)n2)nc1,"inconclusive: 1.58 µM [activator, partial curve, poor fit]",–
COc1ccccc1CN1CC(C(=O)N2CCCCO2)CCC1=O (stereo not given),"inconclusive: 25.1 µM [activator, single point]",–

SMILES,Potency,activation
Cc1nc(CNS(=O)(=O)c2cccc(F)c2)cs1,–,inactive: 6.67%
S=C(Nc1ccc(Nc2ccccc2)cc1)Nc1ccccn1,–,inactive: -49.2%
O=S(=O)(Cc1noc(-c2ccccc2Cl)n1)c1ccccn1,"inconclusive: 2.51 µM [activator, full curve, poor fit]",–
CC1C2(C)OC(=N)C(C#N)(C(C)O2)C1(C#N)C#N (stereo not given),"inconclusive: 0.562 µM [activator, full curve, poor fit]",–
COc1cccc(-c2nnc3sc(-c4ccccc4)nn23)c1,"inconclusive: 20 µM [activator, single point]",–
Cc1nc2cc(-c3ccccc3)nn2c(N)c1-c1ccccc1,"inconclusive: 2.24 µM [activator, partial curve, poor fit]",–
CC(C)[C@H](NC(=O)c1ccccc1Cl)C(=O)OCC(=O)N1CCCCC1,"inconclusive: 35.5 µM [activator, single point]",–
COc1ccc2oc(C(=O)Nc3nc(C)cs3)c(C)c2c1,–,inactive: 48.3%
O=c1c2ccccc2nc2c3ccccc3cnn12,active: 7.94 µM,–
CCc1ccc(-c2cc(C)no2)cc1S(=O)(=O)N1CCCN(Cc2ccc(F)cc2)C1,–,inactive: -52%
COc1cc(Cl)ccc1OCc1cc(C(=O)NC(C)Cc2cnccn2)no1 (stereo not given),"inconclusive: 5.01 µM [activator, full curve, poor fit]",–
CCCCOc1ncnc2c1[nH]c1ccc(C)cc12,"inconclusive: 1.58 µM [activator, partial curve, poor fit]",–
O=C(c1ccc(-c2ccccc2Cl)o1)N1CCC1,active: 2.82 µM,–
O=C(OCc1ccc(Cl)c(Cl)c1)c1ccc[nH]1,active: 12.6 µM,–
COc1cc2c(NC3CCN(C)CC3)nc(N3CCCN(C)CC3)nc2cc1OCCCCN,–,inconclusive: 55.4% [activator]
c1ccc(-c2nc(-c3ccncc3)no2)cc1,"inconclusive: 14.1 µM [activator, partial curve, poor fit]",–
CC(C)Cc1cc(C(=O)Nc2ccc3c(c2)OCO3)no1,"inconclusive: 15.8 µM [activator, partial curve, poor fit]",–
CCc1nnc(NC(=O)c2ccc3c(c2)C(=O)N(C(C)(C)C)C3=O)s1,active: 14.1 µM,–
COc1ccccc1Nc1ncc(C(C)=O)c(C)n1,active: 10 µM,–
COC1=C(Nc2ccc(OC)cc2)C(=O)c2ccccc2C1=O,–,inactive: -45.7%
CSc1ccc(CNCc2ccco2)cc1,–,inconclusive: -79.6% [activator]
Cc1cc(OCc2nc(-c3cccs3)no2)cc(C)c1Cl,–,inactive: 32.8%
COc1cccc(Nc2ncnc3ccccc23)c1,active: 11.2 µM,–
CCCn1cc(NC(=O)C2CC(c3cccc(Br)c3)=NO2)cn1 (stereo not given),–,inactive: 7.85%
CC(C)Oc1ccc(C2CC(=O)N(c3cccc(Br)c3)C2=O)cc1 (stereo not given),–,inactive: 7.33%
CC(=O)N(c1nnc(-c2cccc(C)c2)s1)C1CCCC1,"inconclusive: 12.6 µM [activator, partial curve, poor fit]",–
